Laboratory results as given in PubChem BioAssay AID504832 (National Center for Advancing Translational Sciences (NCATS), 2011).
The campaign covered roughly 310,000 compounds. About 18,000 (5.8%) were called active. The inconclusive results got no clear call from the source; some entries with a clear call stand among them for comparison. Calls follow the shape of the dose curve; as a rule, active = well fitted inhibition curve with a large enough effect; inconclusive = small, poorly fitted or top-dose-only effect, or another doubt; inactive = no such curve, though single readings can be large or run the other way. Potencies of inconclusive entries are left out as doubtful fits.

assay: Primary qHTS for delayed death inhibitors of the malarial parasite plastid, 48 hour incubation; details: P. falciparum luciferase growth in erythrocytes; series mostly up to 28.7 µM
In short: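 Parasite viability was followed by luminescence of a genomically integrated firefly luciferase. Cultures held 0.1% parasitemia at 2% hematocrit (final), incubated under 5% CO2 at 37 C.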
Potency is read from the fitted curve at half-maximal effect; tags tell the direction and shape of the fitted curve.

Compound	Potency
Cc1ccc(OCCc2csc(N)n2)cc1	inactive
CCOC(=O)c1c(NC(NC(C)=O)C(Cl)(Cl)Cl)sc(C(C)=O)c1C (stereo not given)	inconclusive [inhibitor, single point]
Cc1ccc(N2CC(C(=O)N3CCC(C(=O)Nc4ccc(Br)cc4)CC3)CC2=O)cc1 (stereo not given)	inconclusive [inhibitor, single point]
O=C(CN1CCN(c2ccccn2)CC1)N1c2ccccc2CCc2ccccc21	active: 14.7 µM
Cc1cccc(N(C)C(=O)c2cc(S(=O)(=O)N3CCc4ccccc43)cn2C)c1	inconclusive [inhibitor, partial curve, poor fit]
C=CCN([C@@H](CC(C)C)C(=O)OC)S(=O)(=O)N(CC=C)[C@@H](CC(C)C)C(=O)OC	active: 4.65 µM
Cc1ccc(N2C(=O)N3[C@H]4c5ccccc5OC[C@@H]4[C@@H](c4ccccc4)[C@@]3(C)C2=O)cc1	inconclusive [inhibitor, single point]
COCCCNC(=O)Cn1cc(C(=O)C2CC2)c2ccccc21	inconclusive [inhibitor, single point]
O=C(COC(=O)CC1Sc2ccccc2NC1=O)NCc1ccccc1 (stereo not given)	active: 13.1 µM
O=C(C1CCCN(S(=O)(=O)c2cnc[nH]2)C1)N1CCN(c2ccc(Cl)cc2)CC1 (stereo not given)	inconclusive [inhibitor, partial curve]
COc1ccc(Nc2ccc(S(=O)(=O)N3CCCCC3)cc2[N+](=O)[O-])cc1Cl	inconclusive [inhibitor, single point]
Cn1c(Cc2ccccc2)nnc1SCc1cc(=O)n2ccsc2n1	inactive
CCOC(=O)C1CCN(C(=O)CCc2ccc(S(=O)(=O)NC(C)C)cc2)CC1	inconclusive [inhibitor, partial curve]
C[C@@H]1NC(=O)/C(=C\c2ccccc2Cl)NC1=O	inactive
CCOc1cccc2sc(NC(=O)CCS(=O)(=O)c3ccccc3)nc12	inconclusive [inhibitor, single point]
CCN(CC)C(=O)C1CCCN(c2ncnc3c2cnn3-c2ccc(Cl)cc2)C1 (stereo not given)	inactive
CN(CC(=O)Nc1ccccc1Br)C(=O)CNC(=O)c1cccs1	inconclusive [inhibitor, single point]
CN(C)S(=O)(=O)n1cnc([C@@H]2[C@H]3C(=O)OC[C@@H]3C[C@@]23N=CN(Cc2ccccc2)C3=O)c1	inactive
CCOc1ccc(-c2cc(CCCC(=O)N3CCN(c4ccc(OC)cc4)CC3)no2)cc1	inconclusive [inhibitor, single point]
CCOc1ccc(NC(=S)Nc2ccccc2C2CC2)cc1	inconclusive [inhibitor, single point]
Cc1ccc(NC(=O)[C@H](Cc2c[nH]c3ccccc23)NC(=O)[C@@H]2Cc3ccccc3CN2)c(C)c1	inconclusive [inhibitor, single point]
CC(C)CN(C(=O)COC(=O)COc1ccc2c(c1)CCC2)c1c(N)n(Cc2ccccc2)c(=O)[nH]c1=O	inactive
COc1cc(NC(=O)CCc2nnc3ccc(N4CCCC4)nn23)cc(OC)c1OC	inconclusive [inhibitor, partial curve, poor fit]
O=C(Nc1ccccc1N1CCCC1)C1CCN(C(=O)c2ccc(Cl)cc2)CC1	inconclusive [inhibitor, partial curve]

Compound	Potency
COC(=O)c1ccccc1OCC(=O)NC1CCCCC1	inactive
CC1=C(Sc2ccccn2)C(=O)NC(C)(C)C1	inactive
c1ccc2c(c1)cnc1ccccc12	inactive
COc1ccc2cc(C3CC(c4cccs4)=NN3S(C)(=O)=O)c(Cl)nc2c1 (stereo not given)	inactive
CCc1ccc(C(C(=O)NC2CCCC2)N(C(=O)/C=C/C(=O)Nc2cc(C)on2)c2ccccc2C)cc1 (stereo not given)	inconclusive [inhibitor, single point]
CC(C)NC(=O)CN(C)S(=O)(=O)c1ccc(F)cc1	inconclusive [inhibitor, single point]
N=C(N)c1ccc2cc(OC(=O)c3ccc(N=C(N)N)cc3)ccc2c1	active: 12 µM
CCc1noc(C)c1C(=O)Nc1cccc(S(=O)(=O)N(C)c2ccccc2)c1	inconclusive [inhibitor, partial curve]
CCn1c(C)cc(/C=C2/NC(=O)N(c3ccccc3)C2=O)c1C	inconclusive [inhibitor, single point]
Cc1cc(C)c(C)c(S(=O)(=O)N2CCC(C(=O)Nc3ccc(S(=O)(=O)N4CCOCC4)cc3)CC2)c1C	inconclusive [inhibitor, partial curve]
CC(C)CC(CC(C)C)=NNC(=O)c1ccc2c(c1)OCO2	inconclusive [inhibitor, partial curve, poor fit]
COc1ccc(OC)c(-c2csc(NC(=O)Cc3ccc(F)cc3)n2)c1	inconclusive [inhibitor, single point]
CCCCS(=O)(=O)N1CCC(C(=O)Oc2ccc(Cl)cc2)CC1	inactive
Cc1ccc(CNC(=O)C2CCC(=O)N(Cc3ccccc3F)C2)s1 (stereo not given)	inactive
Cc1nc(-c2coc3cc(O)c(C)cc3c2=O)cs1	inactive
CCOC(=O)c1sc(=NC(=O)COc2ccc(Cl)cc2)n(C)c1C	inactive
Cc1cccnc1NC(=O)c1ccc(S(=O)(=O)N2CCCCCC2)cc1	inconclusive [inhibitor, single point]
CCOc1ccc(Nc2cc(C)nc3nc(C)nn23)cc1	inconclusive [inhibitor, single point]
CC1Cc2ccccc2N1CC(=O)Nc1ccc(Cl)c(S(=O)(=O)N(C)C)c1 (stereo not given)	active: 9.28 µM
CCN(CC)S(=O)(=O)c1ccc(OC)c(NC(=O)Cc2cccs2)c1	inactive
Cc1cc(=O)oc2cc(NC(=O)C(C)Oc3cccc(Cl)c3)ccc12 (stereo not given)	inconclusive [inhibitor, single point]
O=C(Nc1sc2c(c1C(=O)NCCCO)CCCC2)c1ccccc1	inconclusive [inhibitor, single point]
CCOC(=O)c1c(CSc2cccs2)n(C)c2cc(Br)c(O)c(CN(C)C)c12	active: 13.1 µM
C(=N\Nc1nc2ccccc2[nH]1)/c1ccccc1	inconclusive [inhibitor, full curve]

Compound	Potency
Cc1ccc2c(c1)N(CCCC(=O)NCCC1=CCCCC1)C(=O)CO2	inconclusive [inhibitor, single point]
O=C1c2ccccc2C(=O)c2c1ncn2-c1ccccc1	active: 4.65 µM
Nc1ccccc1N=c1ssnc1Cl	inconclusive [inhibitor, single point]
Fc1ccc2cnc(-c3ccccc3)c(-c3ccc(C(F)(F)F)cc3)c2c1	inconclusive [inhibitor, single point]
CCN(CC(=O)Nc1ccc2c(c1)OCCO2)c1nc(-c2cccnc2)nc2ccccc12	inconclusive [inhibitor, full curve, poor fit]
CC1CCN(S(=O)(=O)c2ccc(C(=O)NCc3ccco3)cc2)CC1	active: 2.08 µM
CCOC(=O)C1CCN(S(=O)(=O)c2cn(C)cn2)CC1	inactive
COc1ccccc1CC(=O)Nc1ccc(-c2nnc(-c3ccco3)o2)cc1	active: 8.28 µM
COc1ccc(CN(CC(=O)NC2CCCC2)C(=O)c2ccc(-c3ccccc3)[nH]2)cc1	inconclusive [inhibitor, partial curve]
COc1cccc(CNC(=O)c2cc(S(=O)(=O)N3CCCC3)cn2C)c1	active: 13.1 µM
CN(C)CCNc1nc2c(c(=O)[nH]c(=O)n2C)n1CC(O)COc1ccc(Cl)cc1Cl (stereo not given)	inconclusive [inhibitor, single point]
CCOC(=O)/C(C#N)=C/c1cn(CCOc2ccc(OC)cc2)c2ccccc12	inconclusive [inhibitor, single point]
Cc1ccc(C(=O)N2CC(=O)Nc3ccc(F)cc3C2c2ccccc2)cc1 (stereo not given)	inconclusive [inhibitor, single point]
CCc1nnc(NC(=O)CCC(=O)N2CCCC(O)C2)s1 (stereo not given)	inconclusive [inhibitor, single point]
COc1ccc(NC(=O)CSc2nc(O)c(Cc3ccccc3)c(=O)[nH]2)cc1	inconclusive [inhibitor, single point]
C=CCc1c(C)nc2c(C(=O)O)cnn2c1C	inconclusive [inhibitor, full curve, poor fit]
Cc1cccc(-n2nc([N+](=O)[O-])c(=NC3CCN(Cc4ccccc4)CC3)n2O)c1	inconclusive [inhibitor, partial curve, poor fit]
O=C(CSc1n[nH]c(=O)n1-c1ccc2c(c1)OCCO2)Nc1ccccc1	inactive
O=C(CN1CCN(C(=O)C2CCN(C(=O)/C=C/c3ccccc3)CC2)CC1)Nc1ccccc1Cl	inactive
O=C(NCc1ccc(Cl)cc1)C1CCCN(c2ncnc3c2nc2n3CCCCC2)C1 (stereo not given)	inconclusive [inhibitor, single point]
O=[N+]([O-])c1cc(-n2cnnn2)c(O)c([N+](=O)[O-])c1	inactive
Cc1cccc(NC(=S)N=Nc2c(O)n(C)c3ccc(S(=O)(=O)N4CCOCC4)cc23)c1	active: 8.28 µM
